Data published in the supplement of paper PMC3334620.
Whole data set: some 33,000 sequences, median “E-score (-0.5 to 0.5)” near -0.035, cut for the highest 2% near 0.34. This is one part of the list.

Target: T1, Mot3 (UniProt P54785)
T1 sequence: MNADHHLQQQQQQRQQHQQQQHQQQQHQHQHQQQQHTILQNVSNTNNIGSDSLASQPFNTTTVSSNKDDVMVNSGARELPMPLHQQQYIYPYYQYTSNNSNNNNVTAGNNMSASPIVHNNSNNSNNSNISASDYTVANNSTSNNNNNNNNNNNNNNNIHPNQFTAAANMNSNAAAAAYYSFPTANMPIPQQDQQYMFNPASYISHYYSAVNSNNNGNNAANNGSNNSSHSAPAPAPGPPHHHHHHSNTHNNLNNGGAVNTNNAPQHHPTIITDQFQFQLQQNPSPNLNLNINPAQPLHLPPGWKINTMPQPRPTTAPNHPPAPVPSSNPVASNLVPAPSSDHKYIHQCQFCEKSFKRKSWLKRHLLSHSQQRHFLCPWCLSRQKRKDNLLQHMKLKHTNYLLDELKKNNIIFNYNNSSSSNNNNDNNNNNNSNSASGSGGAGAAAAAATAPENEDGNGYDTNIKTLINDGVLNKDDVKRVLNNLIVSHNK
Test: PBM E-score (8-mer binding enrichment) (E-score (-0.5 to 0.5)); higher = stronger / more preferred TF binding; most listed sequences are background and not binding sites
Conditions: protein concentration: 200 nM; construct: GST-full length
Procedure: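 Universal 'all 10-mer' protein binding microarrays (Agilent AMADID 015681) probed with GST-tagged S. cerevisiae TFs (full-length or DBD) made by in vitro transcription/translation (PURExpress), about 100-200 nM. Bound TF was detected with fluorescent anti-GST. Each ungapped 8-mer (which stands for itself and its reverse complement) is scored by the PBM enrichment score (E-score), a modified Wilcoxon-Mann-Whitney statistic from -0.5 to +0.5, computed with the Universal PBM Analysis Suite. Scale: above 0.35 generally sequence-specific binding.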

Question: AATGCTCC was tested. Which “PBM E-score” value did it give?
Answer: The value was -0.24.

Question: For AGCCTGGG, which “PBM E-score” value is on record?
Answer: The value was -0.0377.

Question: CAACCTAG was tested. Which “PBM E-score” value did it give?
Answer: Its value is 0.0147.

Question: With CAGTCCCA as the sequence, how does the “PBM E-score” value read?
Answer: Its value is -0.00632.

Question: Which “PBM E-score” value does the source give for ATAATGGC here?
Answer: Its value is -0.0435.

Question: Which “PBM E-score” value does the source give for GTCGAAAA here?
Answer: Its value is 0.0959.

Question: With AGAAGTTC as the sequence, how does the “PBM E-score” value read?
Answer: Its value is 0.0553.

Question: How did the “PBM E-score” value turn out when CTGCTTCC was run?
Answer: Its value is -0.033.

Question: How did the “PBM E-score” value turn out when CTATACGC was run?
Answer: Its value is 0.152.

Question: TGGCGACA was tested. Which “PBM E-score” value did it give?
Answer: The value was -0.117.

Question: For AATTAACA, which “PBM E-score” value is on record?
Answer: Its value is 0.32.

Question: Which “PBM E-score” value does the source give for TAAAACTA here?
Answer: Its value is 0.156.

Question: For ATCCGGGG, which “PBM E-score” value is on record?
Answer: Its value is -0.223.

Question: Which “PBM E-score” value does the source give for AAGGTGTA here?
Answer: The value was 0.178.

Question: How did the “PBM E-score” value turn out when CACTGCCA was run?
Answer: The value was -0.158.

Question: With GGGGGACC as the sequence, how does the “PBM E-score” value read?
Answer: The value was -0.292.

Question: With CGATCTAA as the sequence, how does the “PBM E-score” value read?
Answer: Its value is 0.0474.

Question: Which “PBM E-score” value does the source give for AACCCAGT here?
Answer: The value was 0.109.

Question: Which “PBM E-score” value does the source give for GCGACTAC here?
Answer: Its value is 0.136.

Question: ACAACTCC was tested. Which “PBM E-score” value did it give?
Answer: The value was -0.157.

Question: How did the “PBM E-score” value turn out when ACTGGCTG was run?
Answer: The value was -0.261.

Question: How did the “PBM E-score” value turn out when AAAGCATT was run?
Answer: The value was 0.0984.

Question: For CCATGCAA, which “PBM E-score” value is on record?
Answer: The value was 0.0816.

Question: For ATATGGAC, which “PBM E-score” value is on record?
Answer: Its value is -0.0623.

Question: How did the “PBM E-score” value turn out when CCCATTCC was run?
Answer: Its value is -0.202.

Question: Which “PBM E-score” value does the source give for CTTCAACC here?
Answer: The value was 0.0605.

Question: With GCAGGCCC as the sequence, how does the “PBM E-score” value read?
Answer: The value was 0.0997.

Question: With AAGATTAG as the sequence, how does the “PBM E-score” value read?
Answer: The value was 0.0808.

Question: For AAACTCCC, which “PBM E-score” value is on record?
Answer: Its value is -0.15.

Question: With AATCGCTA as the sequence, how does the “PBM E-score” value read?
Answer: The value was -0.0747.

Question: Which “PBM E-score” value does the source give for CCTAAAGC here?
Answer: The value was -0.0702.

Question: For TGAACTCA, which “PBM E-score” value is on record?
Answer: The value was 0.00547.

Question: Which “PBM E-score” value does the source give for GCCCTGAA here?
Answer: Its value is -0.108.

Question: With ATGAAATA as the sequence, how does the “PBM E-score” value read?
Answer: The value was 0.149.

Question: With GGGTAGAA as the sequence, how does the “PBM E-score” value read?
Answer: Its value is 0.101.

Question: With ATCCATAC as the sequence, how does the “PBM E-score” value read?
Answer: The value was -0.0429.

Question: Which “PBM E-score” value does the source give for GGGAGTAC here?
Answer: The value was 0.0218.

Question: How did the “PBM E-score” value turn out when ACCCAACG was run?
Answer: Its value is 0.0185.

Question: How did the “PBM E-score” value turn out when CTAGTAGA was run?
Answer: Its value is 0.0485.

Question: For CACGGCCC, which “PBM E-score” value is on record?
Answer: The value was 0.0124.

Question: CTTGGGAA was tested. Which “PBM E-score” value did it give?
Answer: The value was -0.0817.

Question: Which “PBM E-score” value does the source give for ACACCGTC here?
Answer: Its value is -0.242.

Question: With AGCGCCCG as the sequence, how does the “PBM E-score” value read?
Answer: Its value is -0.169.

Question: Which “PBM E-score” value does the source give for GCGTTGAA here?
Answer: The value was 0.217.

Question: CAGTTGAC was tested. Which “PBM E-score” value did it give?
Answer: The value was -0.0241.

Question: Which “PBM E-score” value does the source give for CCGCGCCA here?
Answer: The value was -0.253.

Question: With AATAGAAC as the sequence, how does the “PBM E-score” value read?
Answer: The value was -0.0399.

Question: For GCCTTAGC, which “PBM E-score” value is on record?
Answer: The value was 0.229.

Question: How did the “PBM E-score” value turn out when GTGGTCTA was run?
Answer: The value was -0.279.

Question: GATGTCCC was tested. Which “PBM E-score” value did it give?
Answer: The value was -0.255.

Question: With ATTTTCGA as the sequence, how does the “PBM E-score” value read?
Answer: Its value is 0.0256.

Question: How did the “PBM E-score” value turn out when ACGATGCT was run?
Answer: The value was -0.214.

Question: Which “PBM E-score” value does the source give for CCTAACCC here?
Answer: The value was -0.105.

Question: How did the “PBM E-score” value turn out when AACTAGAA was run?
Answer: Its value is 0.131.

Question: With GTCAGGAC as the sequence, how does the “PBM E-score” value read?
Answer: Its value is -0.0906.

Question: AGATCGAG was tested. Which “PBM E-score” value did it give?
Answer: Its value is -0.216.

Question: For GCCCCCTA, which “PBM E-score” value is on record?
Answer: Its value is -0.355.

Question: How did the “PBM E-score” value turn out when CAGTTAAC was run?
Answer: The value was 0.0448.

Question: GCTGCCCC was tested. Which “PBM E-score” value did it give?
Answer: Its value is -0.304.

Question: With ACCCATAA as the sequence, how does the “PBM E-score” value read?
Answer: Its value is -0.196.

Question: AGGCATGG was tested. Which “PBM E-score” value did it give?
Answer: The value was 0.229.

Question: With AATGCTTA as the sequence, how does the “PBM E-score” value read?
Answer: Its value is -0.0853.

Question: Which “PBM E-score” value does the source give for GGGGTCAA here?
Answer: Its value is -0.179.

Question: Which “PBM E-score” value does the source give for AAACGAGA here?
Answer: Its value is -0.125.

Question: How did the “PBM E-score” value turn out when AGTGCCTG was run?
Answer: The value was 0.49.

Question: GGAAGTCA was tested. Which “PBM E-score” value did it give?
Answer: Its value is -0.15.

Question: How did the “PBM E-score” value turn out when AGCATGCC was run?
Answer: The value was -0.131.

Question: CGCCCGCA was tested. Which “PBM E-score” value did it give?
Answer: The value was -0.212.

Question: With CACGCTAA as the sequence, how does the “PBM E-score” value read?
Answer: Its value is 0.00779.

Question: With ACTTTCTC as the sequence, how does the “PBM E-score” value read?
Answer: Its value is -0.0771.

Question: GTCGATCA was tested. Which “PBM E-score” value did it give?
Answer: The value was 0.00475.

Question: How did the “PBM E-score” value turn out when GGTTTCAA was run?
Answer: Its value is -0.0441.

Question: Which “PBM E-score” value does the source give for GCCCGGTA here?
Answer: Its value is -0.0651.

Question: ATTGAGCG was tested. Which “PBM E-score” value did it give?
Answer: The value was 0.0278.

Question: How did the “PBM E-score” value turn out when AATGCATG was run?
Answer: Its value is 0.187.

Question: Which “PBM E-score” value does the source give for CGGACTGC here?
Answer: Its value is 0.0669.

Question: For ATTCGTTA, which “PBM E-score” value is on record?
Answer: The value was 0.0498.

Question: For AATCTTGA, which “PBM E-score” value is on record?
Answer: Its value is -0.0182.

Question: With CGTAAATA as the sequence, how does the “PBM E-score” value read?
Answer: The value was 0.261.

Question: Which “PBM E-score” value does the source give for ATTTTCCG here?
Answer: The value was 0.025.

Question: With ACTGTTTA as the sequence, how does the “PBM E-score” value read?
Answer: The value was 0.15.

Question: With AAGCCATG as the sequence, how does the “PBM E-score” value read?
Answer: Its value is 0.0568.

Question: With ATGTTAAC as the sequence, how does the “PBM E-score” value read?
Answer: The value was 0.397.

Question: AGTCTCAG was tested. Which “PBM E-score” value did it give?
Answer: The value was -0.0777.

Question: Which “PBM E-score” value does the source give for ATCTACTA here?
Answer: Its value is 0.035.

Question: GATACTTA was tested. Which “PBM E-score” value did it give?
Answer: The value was -0.0786.

Question: With CCAATCGA as the sequence, how does the “PBM E-score” value read?
Answer: Its value is -0.095.

Question: For AGCAGCTA, which “PBM E-score” value is on record?
Answer: Its value is -0.04.

Question: For GACACCGA, which “PBM E-score” value is on record?
Answer: The value was -0.0506.

Question: AACATAAG was tested. Which “PBM E-score” value did it give?
Answer: The value was 0.334.

Question: Which “PBM E-score” value does the source give for CACTCAGG here?
Answer: The value was 0.0625.

Question: How did the “PBM E-score” value turn out when AACCCACC was run?
Answer: Its value is -0.177.

Question: For CAACTGGG, which “PBM E-score” value is on record?
Answer: Its value is -0.226.

Question: CCCTGTTC was tested. Which “PBM E-score” value did it give?
Answer: The value was -0.0727.
